In the supplement of paper PMC4967469:
Lines with a small IC50 respond at low doses; fits outside the tested doses are given as limits. AUC sums up the same curve from the lowest dose to the 256-fold higher top dose; values near 1 show little effect. For part of these data: A top dose marked as inferred is not printed in the source and was worked back from the curve model. For part of these data: Where an entry number is given, a second screen of the drug exists; the two often differ.

Columns and labels:
Experiment in all cases: Viability of human cancer cell lines after 72 h of drug (GDSC screen)
JNK-9L = compound: Fc1cc(-c2ccnc(Nc3ccc(-n4cnc(N5CCOCC5)n4)cc3)n2)cc(N2CCOCC2)c1 [JNK-9L]; details: top dose 5.12 µM; top dose inferred
Experimental: (§1)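 Human cancer cell lines in 384-well plates, medium with 10% serum, drug for 72 h over a 256-fold dose range (nine 2-fold or five 4-fold steps up to the top dose). Adherent lines were fixed and stained with the nucleic acid dye Syto60, suspension lines read with resazurin; signal relative to control wells, capped at 0 and 100%. One two-parameter sigmoid per drug and line, fitted in a mixed model over all curves with the slope shared within a line.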

OSU-03012 = compound: NCC(=O)Nc1ccc(-n2nc(C(F)(F)F)cc2-c2ccc3c(ccc4ccccc43)c2)cc1 [OSU-03012]; details: top dose 16 µM; top dose inferred
Experimental: as §1

QS11 = compound: OC[C@H](Cc1ccccc1)Nc1nc(Oc2ccc3c(c2)CCC3)nc2c1ncn2Cc1ccc(-c2ccccc2)cc1 [QS11]; details: top dose 10.24 µM
Experimental: as §1

CUDC-101 = compound: C#Cc1cccc(Nc2ncnc3cc(OC)c(OCCCCCCC(=O)NO)cc23)c1 [CUDC-101]; details: top dose 5.12 µM; top dose inferred
Experimental: as §1

5-Fluorouracil = compound: O=c1[nH]cc(F)c(=O)[nH]1 [5-Fluorouracil]; details: top dose 32 µM; top dose inferred
Experimental: as §1

RDEA119 = compound: COc1cc(F)c(F)c(Nc2ccc(I)cc2F)c1NS(=O)(=O)C1(C[C@H](O)CO)CC1 [RDEA119]; details: top dose 5 µM, top dose inferred
Experimental: as §1

AC220 = compound: CC(C)(C)c1cc(NC(=O)Nc2ccc(-c3cn4c(n3)sc3cc(OCCN5CCOCC5)ccc34)cc2)no1 [AC220]; details: top dose 1.024 µM; top dose inferred
Experimental: as §1

Row | Cell Line | AUC (JNK-9L) | IC50 (JNK-9L) [µM] | AUC (OSU-03012) | IC50 (OSU-03012) [µM] | AUC (QS11) | IC50 (QS11) [µM] | AUC (CUDC-101) | IC50 (CUDC-101) [µM] | AUC (5-Fluorouracil) | IC50 (5-Fluorouracil) [µM] | AUC (RDEA119; screen: GDSC drug entry 1014) | IC50 (RDEA119; screen: GDSC drug entry 1014) [µM] | AUC (RDEA119; screen: GDSC drug entry 1526) | IC50 (RDEA119; screen: GDSC drug entry 1526) [µM] | AUC (AC220) | IC50 (AC220) [µM]
1 | NCI-H1355 (lung adenocarcinoma, adherent) | 0.666 | 1.15 | 0.733 | 6.33 | 0.92 | > 10.2 | 0.918 | > 5.12 | 0.949 | > 32 | 0.883 | > 5 | 0.697 | 1.44 | 0.974 | > 1.02
2 | NCI-H1395 (lung adenocarcinoma, adherent) | 0.82 | 4.28 | 0.849 | > 16 | 0.966 | > 10.2 | 0.804 | 3.61 | 0.961 | > 32 | 0.847 | > 5 | 0.927 | > 5 | 0.977 | > 1.02
3 | NCI-H1435 (lung adenocarcinoma, semi-adherent) | 0.552 | 0.435 | 0.876 | 12.9 | 0.974 | > 10.2 | 0.985 | > 5.12 | 0.988 | > 32 | 0.976 | > 5 | 0.992 | > 5 | 0.993 | > 1.02
4 | NCI-H1436 (small cell lung carcinoma, suspension) | 0.709 | 1.36 | 0.806 | 9.54 | 0.978 | > 10.2 | 0.474 | 0.269 | 0.863 | > 32 | 0.98 | > 5 | 0.98 | > 5 | 0.973 | > 1.02
5 | NCI-H1563 (lung adenocarcinoma, adherent) | 0.587 | 0.58 | 0.878 | > 16 | 0.951 | > 10.2 | 0.786 | 2.66 | 0.973 | > 32 | 0.859 | > 5 | 0.872 | > 5 | 0.839 | 0.899
6 | NCI-H1568 (lung adenocarcinoma, adherent) | 0.555 | 0.469 | 0.741 | 5.9 | 0.974 | > 10.2 | 0.98 | > 5.12 | 0.971 | > 32 | 0.828 | 4.19 | 0.78 | 2.6 | 0.978 | > 1.02
7 | NCI-H1573 (lung adenocarcinoma, adherent) | 0.833 | 3.17 | 0.879 | 15.5 | 0.986 | > 10.2 | 0.821 | 2.85 | 0.969 | > 32 | – | – | 0.956 | > 5 | 0.973 | > 1.02
8 | NCI-H1581 (large cell lung carcinoma, semi-adherent) | 0.749 | 1.54 | 0.869 | 12.8 | 0.984 | > 10.2 | 0.443 | 0.227 | 0.975 | > 32 | – | – | 0.909 | > 5 | 0.97 | > 1.02
9 | NCI-H1623 (lung adenocarcinoma, adherent) | 0.716 | 1.52 | 0.858 | > 16 | 0.943 | > 10.2 | 0.584 | 0.572 | 0.975 | > 32 | 0.755 | 2.04 | 0.849 | > 5 | 0.973 | > 1.02
10 | NCI-H1648 (lung adenocarcinoma, adherent) | 0.561 | – | 0.735 | 4.93 | 0.953 | > 10.2 | 0.473 | 0.269 | 0.802 | 16.9 | 0.933 | > 5 | 0.93 | > 5 | 0.965 | > 1.02
11 | NCI-H1666 (lung adenocarcinoma, semi-adherent) | 0.758 | 1.94 | 0.756 | 5.94 | 0.982 | > 10.2 | 0.749 | 1.8 | 0.942 | > 32 | – | – | 0.533 | 0.388 | 0.987 | > 1.02
12 | NCI-H1688 (small cell lung carcinoma, adherent) | 0.628 | 0.748 | 0.937 | > 16 | 0.97 | > 10.2 | 0.524 | 0.374 | 0.964 | > 32 | 0.952 | > 5 | 0.985 | > 5 | 0.954 | > 1.02
13 | NCI-H1693 (lung adenocarcinoma, adherent) | 0.794 | 4.25 | 0.897 | > 16 | 0.837 | > 10.2 | 0.433 | 0.188 | 0.97 | > 32 | 0.885 | > 5 | 0.79 | 3.98 | 0.971 | > 1.02
14 | NCI-H1694 (small cell lung carcinoma, suspension) | 0.715 | 1.29 | 0.789 | 7.05 | 0.939 | > 10.2 | 0.391 | 0.161 | 0.894 | > 32 | 0.986 | > 5 | 0.974 | > 5 | 0.932 | > 1.02
15 | NCI-H1703 (lung adenocarcinoma, adherent) | 0.602 | 0.65 | 0.87 | > 16 | 0.955 | > 10.2 | 0.844 | 4.93 | 0.965 | > 32 | 0.97 | > 5 | 0.966 | > 5 | 0.691 | 0.249
16 | NCI-H1755 (lung adenocarcinoma, adherent) | 0.664 | 0.985 | 0.965 | > 16 | 0.942 | > 10.2 | 0.391 | 0.152 | 0.981 | > 32 | 0.876 | > 5 | 0.844 | 4.46 | 0.962 | > 1.02
